Consider 21 molecules from patent US20120315270A1 (UNITED STATES OF AMERICA AS REPRESENTED BY THE, published 2012).

The target of experiment [1] is T1, Motavizumab fragment of antigen binding (Fab).
T1 construct: also called motavizumab Fab
The experiment is described as follows: SPR (Biacore), motavizumab Fab immobilised, immunogen injected.

The target in experiment [2] is motavizumab (as used in ITC). The experiment in a line: ITC.
The target in experiment [3] is T1, Motavizumab fragment of antigen binding …. The experiment in a line: SPR (Biacore), motavizumab Fab immobilised, immunogen injected. This is another data set of the same source.
The target is the same in experiment [4]. The experiment is described as follows: SPR (Biacore), motavizumab Fab immobilised, immunogen injected; Biacore, not ITC.

Where a chain is given by its changes, count along the chain named. Names and notes keep the numbering of the source.

B1: 1lp1b-003_Glyc1 (designed binder)
chain: SFNDEKKLASNEIAHLPNLNETQRSAFLSSINDDPSQSANLLANATKLNDAQAPLEVLFQGPGAKFVAAWTLKAAAGDEVDGSHHHHHHSAWSHPQFEK
notes: also called 1l1pb_003_Glyc1
In turn, B1 registered an equilibrium dissociation constant (Kd) in experiment [1] of 400 nM.

B2: 1lp1b_003 (designed binder)
chain: SFNDEKKLASNEIAHLPNLNEEQRSAFLSSINDDPSQSANLLAEAKKLNDAQAPKLEVLFQGPGAKFVAAWTLKAAAGDEVDGSHHHHHHSAWSHPQFEK
notes: also called 11p1b_003
Regarding B2, the equilibrium dissociation constant (Kd) in experiment [1] was found to be 66 nM. Further, in experiment [2], the “-TdS” value is -10.5, the Kd is 126 nM and the dH was determined as 1.1. In addition, binding in experiment [3] was put at a Kd of 66 nM.

B3: 1lp1b_003_Q52A (designed binder)
chain: B2 chain with Q52A
B3 displayed a Kd in experiment [1] of 233 nM. For the same molecule, in experiment [2], the “-TdS” value is -8.8, binding was put at a Kd of 16 nM and the dH was -1.8.

B4: 1lp1b_003_L16A (designed binder)
chain: B2 chain with L16A
B4 showed a dissociation constant Kd in experiment [1] of 2300 nM. Also, in experiment [2], the “-TdS” value is 3.4, binding was characterised by a dissociation constant (Kd) of 341 nM and the dH was -12.3.

B5: 1lp1b_003_L19A (designed binder)
chain: B2 chain with L19A
With B5, in experiment [2], the “-TdS” value worked out at 20.9, the Kd is 21000 nM and the dH is -27.3.

B6: 1lp1b-003_L41I_L42A (designed binder)
chain: B2 chain with L41I, L42A
As to B6, in experiment [1], binding was characterised by a dissociation constant (Kd) of 247 nM. In experiment [2], the “-TdS” value was -9, the Kd came out at 24 nM and the dH is -1.3.

B7: 1lp1b_003_I13L_F27A (designed binder)
chain: B2 chain with I13L, F27A
As for B7, binding in experiment [1] was put at a Kd of 541 nM. Further, in experiment [2], the “-TdS” value is 10.1, the equilibrium dissociation constant (Kd) came out at 159 nM and the dH was -19.4.

B8: 1lp1b_003_Glyc2 (designed binder)
chain: B2 chain with E22T, S36N, E44N, K46T
As for B8, in experiment [1], the Kd is 812 nM.

B9: 1lp1b_003_L41I_L42V (designed binder)
chain: B2 chain with L41I, L42V
B9 returned a dissociation constant (Kd) in experiment [1] of 77 nM. For the same molecule, in experiment [2], the “-TdS” value is -7.9, binding was characterised by a dissociation constant (Kd) of 90 nM and the dH is -1.7.

B10: 1lp1b-003_Surf8 (designed binder)
chain: B2 chain with E12R, H15N, E21Q, S30K, A43E, K46L, A51N, P54Q
notes: also called 1l1pb_003_Surf8
For B10, binding in experiment [1] was put at a Kd of 117 nM.

B11: 1lp1b_004 (designed binder)
chain: B2 chain with A14Q, L28I, I31L
notes: also called 11p1b_004
Consider B11, for which the equilibrium dissociation constant (Kd) in experiment [1] and in experiment [3] was 296 nM each time.

B12: 1lp1b_003_L41A (designed binder)
chain: B2 chain with L41A
For B12, in experiment [1], the equilibrium dissociation constant (Kd) is 310 nM. Also, in experiment [2], the “-TdS” value is -5.7, binding was characterised by a dissociation constant (Kd) of 79 nM and the dH is -4.

B13: 1lp1b_003_F27A (designed binder)
chain: B2 chain with F27A
B13 gave a Kd in experiment [1] of 490 nM. Further, in experiment [2], the “-TdS” value amounted to 2.7, the dissociation constant (Kd) turned out to be 83 nM and the dH is -12.4.

B14: 1lp1b_003_I13A (designed binder)
chain: B2 chain with I13A
B14: the Kd in experiment [1] amounted to 2300 nM. Besides, in experiment [2], the “-TdS” value is 7.4, binding was put at a Kd of 380 nM and the dH was -16.2.

B15: 1lp1b_003_K272E (designed binder)
chain: B2 chain with K7E
notes: also called 1lp1b(K272E)
On to B15, for which the binding result in experiment [1] is reported as “no binding”.

B16: 1lp1b_003_L42A (designed binder)
chain: B2 chain with L42A
As for B16, in experiment [1], the equilibrium dissociation constant (Kd) worked out at 218 nM. In addition, in experiment [2], the “-TdS” value was -5.1, the Kd worked out at 93 nM and the dH was -4.4.

B17: 1lp1b_003_K46A (designed binder)
chain: B2 chain with K46A
On to B17, for which, in experiment [2], the “-TdS” value was -5.1; the affinity, expressed as Kd, was 21 nM; the dH is -5.3. In experiment [4], this molecule had a Kd of 148 nM.

B18: 1lp1b_003_I13A_L42A (designed binder)
chain: B2 chain with I13A, L42A
For B18, in experiment [2], the “-TdS” value is 18.8, the Kd was determined as 10700 nM and the dH is -25.6.

B19: 1lp1b-003_Surf1 (designed binder)
chain: B2 chain with E12R, H15N, S30K, A43E, K46L, P54Q
notes: also called 1l1pb_003_Surf1
The molecule B19 gave a dissociation constant Kd in experiment [1] of 120 nM.

B20: 1lp1b_001 (designed binder)
chain: VDNSFNDEKKLASNEIAHLPNLNEEQRSAFLSSINDDPSQSANLLAEAKKLNDAQAPKLEVLFQGPGAKFVAAWTLKAAAGDEVDGSHHHHHHSAWSHPQFEK
notes: also called 11p1b_001
For B20, the Kd in experiment [1] and in experiment [3] was 181 nM in each case.

B21: 1lp1b_002 (designed binder)
chain: B20 chain with A17Q, L31I, I34L
notes: also called 11p1b_002
For B21, the Kd in experiment [1] and in experiment [3] was 700 nM each time.
